Whole data set: some 81,000 sequences, median “one-hybrid fitness for binding NBS DNA” near -0.1, cut for the highest 2% near 0.36. The list shows a part of the results.
B1: Caulobacter ParB omega fusion; a variant is named by its letters at X, in order, B8GW30 (parent)
chain: MESVVVGEPGMSEGRRGLGRGLSALLGEVDAAPAQAPGEQLGGSREAPIEILQRNPDQPRRTFREEDLEDLSNSIREKGVLQPILVRPSPDTAGEYQIVAGERAWRAAQRAGLKTVPIMVRELDDLAVLEIGIIENVQRADLNVLEEALSYKVLMEKFERTQENIAQTIGKSXSHVANXMRLLXLPDEVQSYLVSGELTAXHARAIAAAADPVALAKQIIEGGLSVRETEALARKAPNLSAGKSKGGRPPRVKDTDTQALESDLSSVLGLDVSIDHRGSTGTLTITYATLEQLDDLCNRLTRGI

Variants of: B1
Experiment: one-hybrid fitness for binding NBS DNA (the Noc-binding site; scaled: cognate 1, non-cognate 0); higher = stronger binding
Conditions: with NBS DNA site
Method in brief: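 Selection: bacterial one-hybrid in E. coli USO, HIS3 reporter with the site 19 bp from the promoter, 48 hours at 37°C on M9-minus-histidine plus 0.1 mM IPTG and 5 mM 3-AT. Libraries were Caulobacter ParB with four randomised specificity codons, sequenced on Illumina before and after selection. Fitness is the rescaled log change in variant-to-wild-type read ratio, anchored to the cognate and non-cognate sites.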

Variant | one-hybrid fitness for binding NBS DNA
QNNQ | ≤ 0.2
LNCF | ≤ 0.2
NQHR | ≤ 0.2
VLMC | ≤ 0.2
YGVS | ≤ 0.2
KMNG | ≤ 0.2
TNKR | ≤ 0.2
TAPN | ≤ 0.2
NMNC | ≤ 0.2
TSSR | 0.276
DVAW | ≤ 0.2
ETNT | ≤ 0.2
TKTG | ≤ 0.2
CSDI | ≤ 0.2
HTHV | ≤ 0.2
QTYT | 0.572
QLTF | ≤ 0.2
PVLW | ≤ 0.2
TNRS | ≤ 0.2
THVE | ≤ 0.2
QYWE | ≤ 0.2
RPWY | ≤ 0.2
ESSS | ≤ 0.2
KATK | ≤ 0.2
HLKV | ≤ 0.2
TSMI | ≤ 0.2

Variant | one-hybrid fitness for binding NBS DNA
ITSM | ≤ 0.2
VPNI | ≤ 0.2
GQAK | ≤ 0.2
GALD | ≤ 0.2
GPPT | ≤ 0.2
VCCC | ≤ 0.2
MLLR | ≤ 0.2
KDPC | ≤ 0.2
RGTI | ≤ 0.2
DMGP | ≤ 0.2
NPTL | ≤ 0.2
TNPW | ≤ 0.2
PCYN | ≤ 0.2
GQPS | ≤ 0.2
RQPS | ≤ 0.2
QNKY | ≤ 0.2
QNFW | ≤ 0.2
TVAY | ≤ 0.2
WAQS | ≤ 0.2
YEPL | ≤ 0.2
HHII | ≤ 0.2
QRGD | 0.293
HDMR | ≤ 0.2
QRFL | ≤ 0.2
PTLD | ≤ 0.2
RKNM | ≤ 0.2

Variant | one-hybrid fitness for binding NBS DNA
FPPG | ≤ 0.2
PKAV | ≤ 0.2
AQAY | ≤ 0.2
MKKT | ≤ 0.2
PPAH | ≤ 0.2
SYGV | ≤ 0.2
HQTT | ≤ 0.2
SLDA | ≤ 0.2
NCPS | ≤ 0.2
ASQN | ≤ 0.2
LYLM | ≤ 0.2
RIAR | 0.384
VCQP | ≤ 0.2
PTIE | ≤ 0.2
WNPT | ≤ 0.2
NCII | ≤ 0.2
QGVG | ≤ 0.2
NSES | ≤ 0.2
RYND | ≤ 0.2
WYQL | ≤ 0.2
CMSG | ≤ 0.2
VRCS | ≤ 0.2
SHPP | ≤ 0.2
ALMK | ≤ 0.2
ITHT | ≤ 0.2
RQCV | ≤ 0.2

Variant | one-hybrid fitness for binding NBS DNA
YQGS | ≤ 0.2
AYTV | ≤ 0.2
VSES | ≤ 0.2
GVLC | ≤ 0.2
RRAI | ≤ 0.2
SEFT | ≤ 0.2
HFLP | ≤ 0.2
RYCM | ≤ 0.2
APGR | ≤ 0.2
NCTN | ≤ 0.2
KRCH | ≤ 0.2
ILAS | ≤ 0.2
GACG | ≤ 0.2
NGQG | ≤ 0.2
TLYY | ≤ 0.2
APYP | ≤ 0.2
ALLT | ≤ 0.2
VRAA | ≤ 0.2
EWGS | ≤ 0.2
ITLL | ≤ 0.2
IPGT | ≤ 0.2
QPMD | ≤ 0.2
RYTA | ≤ 0.2
RTIT | 0.352
RMHD | ≤ 0.2
RHEE | ≤ 0.2

Variant | one-hybrid fitness for binding NBS DNA
ADCW | ≤ 0.2
SRRP | ≤ 0.2
SGQT | ≤ 0.2
QGYC | ≤ 0.2
HLDT | ≤ 0.2
PIKL | ≤ 0.2
FAPD | ≤ 0.2
RKFL | ≤ 0.2
DCMS | ≤ 0.2
SQST | ≤ 0.2
RMGF | ≤ 0.2
DGWN | ≤ 0.2
VGSN | ≤ 0.2
QAGI | ≤ 0.2
NIPR | ≤ 0.2
LLTQ | ≤ 0.2
WISH | ≤ 0.2
ARRS | ≤ 0.2
INGE | ≤ 0.2
RKIV | ≤ 0.2
WVST | ≤ 0.2
SACQ | ≤ 0.2
VSHQ | ≤ 0.2
YNEP | ≤ 0.2
HATR | ≤ 0.2
SPML | ≤ 0.2

Variant | one-hybrid fitness for binding NBS DNA
YIKE | ≤ 0.2
PMNN | ≤ 0.2
GAID | ≤ 0.2
KHHR | ≤ 0.2
CAQR | ≤ 0.2
WYYF | ≤ 0.2
QTMY | 0.232
WGRG | ≤ 0.2
LAPC | ≤ 0.2
RIFM | ≤ 0.2
RWRH | ≤ 0.2
YPVD | ≤ 0.2
QNVI | ≤ 0.2
AGNM | ≤ 0.2
WWTF | ≤ 0.2
DPHR | ≤ 0.2
CPAC | ≤ 0.2
HNGS | ≤ 0.2
PPKW | ≤ 0.2
EKGY | ≤ 0.2
QCAY | 0.21
HTYC | ≤ 0.2
TPPI | ≤ 0.2

— a collection of fitness landscapes (doi:10.1016/j.celrep.2020.107928)
